Assay results from the supplement of paper PMC7826260.
Some of the results follow. Cleavage of a single-stranded DNA pool by Rep nickase domains was read by sequencing (1 h at 37 °C, 3 µM enzyme); the outer parts of the 90-letter strands are left off. A value is the log2 ratio of uncut reads to the pool without enzyme; more negative means more cut, near 0 not cut, and no call is made. Because reads are shares of a total, they shift together; uncut strands gain when others are lost, and binding without cutting may add a little.

System: T1, Rep nickase domain of tomato golden mosaic virus
T1 sequence (residues 1-124, tag not shown): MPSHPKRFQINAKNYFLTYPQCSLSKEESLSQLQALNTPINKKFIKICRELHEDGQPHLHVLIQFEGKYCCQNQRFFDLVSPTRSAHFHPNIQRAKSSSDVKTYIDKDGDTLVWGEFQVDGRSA
Experiment: uncleaved DNA left, log2 of reads against the no-enzyme library (log2 ratio); higher = less cleavage (more negative = more Rep cleavage of the k-mer); sequences stand for … in CTCGTCCG…ACCGGAGA
Procedure: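 A pool of 90-nt single-stranded DNAs with seven random bases just before the constant AC of the nick site (name = the seven bases) was cut by 3 µM recombinant His6-SUMO-tagged Rep nickase domain (300 nM DNA, 50 mM HEPES pH 8.0, 50 mM NaCl, 1 mM MnCl2, 1 h, 37 °C, three replicates). Uncut DNA was amplified and sequenced.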

Sequence | uncleaved DNA left (log2)
CCTACGT | -0.00728
GTATTAG | -0.0372
TGCCGCA | -0.138
GCTGGGA | 0.0937
AAGGCAG | 0.172
TATAAGC | 0.136
CCCACAC | 0.0577
TTTAAGC | 0.0247
CCGTAGA | 0.0861
ACACGTG | 0.0904
GAAAAGC | 0.0398
ACGGAAC | 0.0457
GGAATAG | 0.0524
AAGCGTG | 0.105
CGTCGTA | -0.0161
GCCCATT | -0.3
CGTCTTC | 0.107
TACTTAA | -0.0334
CGCGTGT | -0.137
AAACACA | -0.101

Sequence | uncleaved DNA left (log2)
CACACAA | -0.0459
ATGTGGT | -0.00828
CGTAGTA | -0.0325
TATGATA | 0.0613
AACTTAG | 0.0925
GAATTCC | 0.0438
AAATTCA | -0.161
TCGCTCC | -0.209
GATTGGG | 0.0935
GAGCTAC | -0.0671
TTTACGG | 0.122
GGAGCTT | -0.0643
CAGGTGG | -0.138
CACCGCT | -0.0523
GCTATCT | 0.0578
AAGGTCG | -0.00705
AGGTATG | 0.112
ATTACGC | 0.0922
CGACCCC | -0.012
CGGATGC | -0.125
